In PubChem BioAssay AID588855 (National Center for Advancing Translational Sciences (NCATS), 2011):
Screen size: about 410,000 compounds; about 5,000 (1.2%) were called active. Inconclusive means that the source gave no clear call. Such entries were picked first, then a sample of the others. Calls come from the whole dose curve; as a rule, active = well fitted inhibition curve with a large enough effect; inconclusive = small, poorly fitted or top-dose-only effect; inactive = no such curve, though single readings can be large or run the other way. A potency beside an inconclusive call is a rough fit, not a confirmed value.

Assay: qHTS for Inhibitors of TGF-b; note: nearly all actives have a fitted effect of over 65% in size
Conditions: HepG2 CAGA-GFP TGF-b/SMAD3 reporter, GFP fluorescence, 18 h, TGF-beta stimulated, 500 pg/mL final; series mostly up to 46.1 µM
Summary of the method: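 Read-out: total well GFP (ex488/em500-530) summed from mean per-cell fluorescence. Cells: HEPG2 CAGA-GFP, 1% FBS DMEM, 18 h at 37 degrees C with 500 pg/mL final TGF-beta. Unstimulated wells served as the full-inhibition control; stimulated DMSO wells = 0%.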
Potency is the fitted concentration of half-maximal effect; tags give direction and shape of the fitted curve.

| Compound | Potency |
| --- | --- |
| O=C(c1ccc(F)cc1)C1CCN(C(=S)Nc2ccccc2Cl)CC1 | inconclusive: 22.4 µM [inhibitor, single point] |
| CCC(C)(C)C1CCc2[nH]nc(C(=O)NCCN3CCOCC3)c2C1 (configuration not stated) | inconclusive: 5.62 µM [inhibitor, single point] |
| Clc1ccc(SCc2cc(N3CCOCC3)nc(-c3ccccn3)n2)cc1 | inconclusive: 10 µM [inhibitor, partial curve] |
| COC(=O)c1cc2oc(C)cc2n1CC(=O)Nc1ccc(OC)c(OC)c1 | inactive |
| Cc1ccc(S(=O)(=O)n2nc(C)c(Br)c2C)c(C)c1C | inconclusive: 35.5 µM [inhibitor, single point] |
| COCCN1Cc2cccc(C(=O)N3CCN(c4cc(C)ccc4C)CC3)c2C1=O | inactive |
| CC(C)C#Cc1cnc2c(c1)C(=O)N([C@H](C)CO)C[C@@H](C)[C@H](CN(C)C(=O)Nc1ccccc1F)O2 | inactive |
| Cc1cc(C)c2c(=O)n3c(nc2c1)C(Cc1ccc(O)cc1)NC(=O)c1cc2ccccc2cc1-3 (configuration not stated) | inconclusive: 10 µM [inhibitor, partial curve, poor fit] |
| O=C(O)COc1ccc(/C=N/NC(=O)/C(=C/C=C/c2ccccc2)NC(=O)c2ccccc2)cc1 | inactive |
| Cc1ccc(-n2nnnc2-c2cnc(N3CCCC3)nc2C(F)(F)F)cc1 | inconclusive: 35.5 µM [inhibitor, single point] |
| COCCn1c(SCC(=O)N2CC(=O)Nc3ccccc32)nc2ccccc2c1=O | inactive |
| Cc1ccc(Cc2cnc(N3C(=N)SC(c4ccccc4)C3=O)s2)cc1 (configuration not stated) | inconclusive: 35.5 µM [inhibitor, single point] |
| CCSc1nnc(NC(=O)Nc2cccc(C)c2)s1 | active: 7.94 µM |
| Cc1cccc(N(CC(=O)NCc2ccco2)C(=O)CCC(=O)Nc2nccs2)c1C | inactive |
| CC(C)c1ccc(N(CC(=O)NCCSCc2ccco2)S(C)(=O)=O)cc1 | inconclusive: 6.31 µM [inhibitor, partial curve, poor fit] |
| CCCC(=O)Nc1nc2c(s1)CC(C(C)(C)C)CC2 (configuration not stated) | inactive |
| CCCC(C)NC(=O)C1CCN(S(=O)(=O)c2ccccc2)CC1 (configuration not stated) | inactive |
| Cc1[nH]c(-c2ccc(F)cc2)cc1C(=O)N1CCN(c2ccccc2F)CC1 | inconclusive: 35.5 µM [inhibitor, single point] |
| Cc1cccc(C)c1N(CC(=O)Nc1cc(Cl)ccc1Oc1ccccc1)S(C)(=O)=O | inconclusive: 5.01 µM [inhibitor, full curve] |
| CCN(CC(=O)Nc1cccc(OC)c1)C(=O)c1cccc(S(=O)(=O)N2CCc3ccccc32)c1 | inconclusive: 35.5 µM [inhibitor, single point] |
| COc1ccc(CCN2C(=O)c3[nH]nc(-c4ccccc4O)c3C2c2ccc(C)cc2)cc1OC (configuration not stated) | inconclusive: 35.5 µM [inhibitor, single point] |
| O=C(C(Cl)Cl)N1CCN(Cc2ccc3c(c2)OCO3)CC1 | inconclusive: 11.2 µM [inhibitor, single point] |
| CC(=O)Nc1c(C)nn(-c2ccccc2)c1N1CCC(C(=O)Nc2ccc(Cl)cc2C)CC1 | inactive |

| Compound | Potency |
| --- | --- |
| Cn1c(CCN2CCCC2)nc2cc(NS(=O)(=O)c3ccc(Cl)cc3)ccc21 | inconclusive: 35.5 µM [inhibitor, single point] |
| COc1cc(C(=O)Oc2ccccc2/C=N/NC(=O)c2ccc(Cl)cc2Cl)cc(OC)c1OC | inconclusive: 12.6 µM [inhibitor, partial curve, poor fit] |
| O=C(CCc1nnc(CCc2ccccc2)o1)N1CCCC1c1nccs1 (configuration not stated) | inconclusive: 6.31 µM [inhibitor, single point] |
| CCOC(=O)c1c(C)oc2ccc(OC(=O)N3CCOCC3)cc12 | inconclusive: 14.1 µM [inhibitor, single point] |
| Cc1nc(Oc2ccccc2)c2ccsc2n1 | inconclusive: 35.5 µM [inhibitor, single point] |
| CC1=C(C(=O)OCc2ccccc2)C(c2ccc([N+](=O)[O-])cc2)NC(=O)N1CCCC(=O)O (configuration not stated) | inconclusive: 6.31 µM [inhibitor, full curve] |
| OC[C@@H]1[C@@H](c2ccccc2)C(c2ccccc2)=NN1c1ccccc1 | inconclusive: 12.6 µM [inhibitor, partial curve, poor fit] |
| CCN(CC)S(=O)(=O)c1ccc(O)c(NC(=O)c2cc(-c3cc(OC)c(OC)c(OC)c3)nc3ccccc23)c1 | inconclusive: 8.91 µM [inhibitor, partial curve] |
| N#C/C(=C\c1ccccc1[N+](=O)[O-])c1nc(C2CC2)cs1 | inconclusive: 22.4 µM [inhibitor, single point] |
| CCOC(=O)c1c(C)[nH]c(C(=O)NNC(=O)c2ccc(C(C)(C)C)cc2)c1C | inconclusive: 5.62 µM [inhibitor, single point] |
| CCCNC(=O)COC(=O)c1ccccc1C(=O)c1ccc(Cl)c([N+](=O)[O-])c1 | inconclusive: 35.5 µM [inhibitor, single point] |
| CCCCn1c(N)c(N(CCC(C)C)C(=O)CSc2nc3ccccc3n2C)c(=O)[nH]c1=O | inactive |
| Cc1ccc(N2C(=O)C(F)(F)C2c2ccccc2)cc1 (configuration not stated) | inconclusive: 5.62 µM [inhibitor, partial curve, poor fit] |
| Fc1ccc(/C=N/Nc2nccnc2Cl)cc1 | inconclusive: 35.5 µM [inhibitor, partial curve, poor fit] |
| CC(C)C[C@H]1CN=C(Nc2ccccc2)N1CCC1CCCC1 | inactive |
| CC(=O)C[C@H]1c2cc(C(F)(F)F)ccc2S(=O)(=O)N1C1CCCCC1 | active: 11.2 µM |
| CC(C)(C)n1ncc2c(=O)n(Cc3cccc(F)c3)cnc21 | inactive |
| CCOC(=O)N/N=C\c1ccc([N+](=O)[O-])o1 | inconclusive: 17.8 µM [inhibitor, single point] |
| Cc1cccc(-c2nc3c4ccccc4n(CC(=O)Nc4cccc(F)c4)c(=O)n3n2)c1 | inconclusive: 22.4 µM [inhibitor, partial curve, poor fit] |
| CCc1ccc2c(c1)c(=O)c(S(=O)(=O)c1ccccc1)cn2CC(=O)Nc1cc(C)ccc1C | inactive |
| COC(=O)c1ccc2nc(-c3cccc(Br)c3)c(Cc3ccsc3)n2c1 | inconclusive: 25.1 µM [inhibitor, single point] |
| CC(C)S(=O)(=O)c1csc(NC(=O)Nc2ccc(Cl)cc2)c1 | inconclusive: 35.5 µM [inhibitor, single point] |
| CCC(=O)C1=C(c2cccc([N+](=O)[O-])c2)N(C(=O)CC)n2c(nnc2C2CCCCC2)S1 | inactive |

| Compound | Potency |
| --- | --- |
| COc1ccc(-n2c(SCC(=O)/C(C#N)=C(\C)N)nc3ccccc3c2=O)cc1OC | inconclusive: 35.5 µM [inhibitor, partial curve, poor fit] |
| C=CCn1cc(/C=N/N2C(=O)C3C4C=CC(C4)C3C2=O)c2ccccc21 (configuration not stated) | inconclusive: 35.5 µM [inhibitor, single point] |
| Cc1ccc(CCNC(=O)Cn2ncc3c(=O)oc4ccccc4c32)cc1 | inactive |
| COc1cccc(C(=O)NCCS(=O)(=O)NCc2ccc3c(c2)OCO3)c1 | inactive |
| COc1ccc(C(=O)N2CCC(C(=O)N3CCN(c4ccc(OC)cc4)CC3)CC2)cc1 | inactive |
| Cc1ccccc1-c1nc(CS(=O)(=O)CC(=O)Nc2c(C)cccc2C)c(C)o1 | active: 11.2 µM |
| O=S(=O)(Nc1ccc2c(c1)nc1n2CCOC1)c1ccc(Cl)cc1 | inactive |
| CCc1nnc(SC(CC)C(=O)NCCOC)c2cc3occc3n12 (configuration not stated) | inconclusive: 35.5 µM [inhibitor, single point] |
| Nc1ncnc(NNC(=O)CNC(=O)c2c(F)cccc2Cl)c1[N+](=O)[O-] | inconclusive: 5.62 µM [inhibitor, single point] |
| CC(=NNC(=S)N1CCN(C2CCCCCC2)CC1)c1ccccn1 | inconclusive: 0.447 µM [inhibitor, full curve, poor fit] |
| CCOc1ccccc1N(C)C(=O)c1cc(S(=O)(=O)NCc2ccc(C)cc2)ccc1F | inconclusive: 22.4 µM [inhibitor, partial curve, poor fit] |
| CC1=C(C(=O)N2CCCCCC2)CC(CC(=O)NCc2ccco2)C(=O)N1Cc1ccccc1 (configuration not stated) | inactive |
| O=[N+]([O-])c1ccc(N2CCN(S(=O)(=O)c3ccccc3)CC2)cc1NCCN1CCOCC1 | inconclusive: 22.4 µM [inhibitor, single point] |
| CCc1nn2c(=O)cc(COC(=O)c3cccc(NC(=O)COc4ccccc4F)c3)nc2s1 | inactive |
| N#C/C(=C\c1ccc(Cl)c([N+](=O)[O-])c1)c1ccccn1 | inconclusive: 10 µM [inhibitor, single point] |
| O=C(CSCc1ccc(Cl)cc1)Nc1cc([N+](=O)[O-])ccc1O | inconclusive: 22.4 µM [inhibitor, single point] |
| O=C(Nc1ccc2nc3n(c(=O)c2c1)CCCC3)c1cc([N+](=O)[O-])ccc1F | inconclusive: 35.5 µM [inhibitor, single point] |
| O=C(/C=C/c1ccco1)OCn1nnc2ccccc2c1=O | inconclusive: 35.5 µM [inhibitor, single point] |
| C/C(=N\NC(=S)NC1CCCCC1)c1cccs1 | inactive |
| Cc1ccc2cc(C(c3nnnn3C3CCCC3)N(Cc3ccccc3)Cc3ccco3)c(=O)[nH]c2c1 (configuration not stated) | inconclusive: 22.4 µM [inhibitor, single point] |
| CC(C)c1ccc2[nH]c(O)c(N=NC(=S)NCCc3ccccc3)c2c1 | inconclusive: 25.1 µM [inhibitor, single point] |
